Reference: a collection of fitness landscapes (doi:10.1126/science.1257360)
This is one part of the list.

B1: PhoQ; a variant is named by its letters at X, in order, P23837 (parent)
chain: MKKLLRLFFPLSLRVRFLLATAAVVLVLSLAYGMVALIGYSVSFDKTTFRLLRGESNLFYTLAKWENNKLHVELPENIDKQSPTMTLIYDENGQLLWAQRDVPWLMKMIQPDWLKSNGFHEIEADVNDTSLLLSGDHSIQQQLQEVREDDDDAEMTHSVAVNVYPATSRMPKLTIVVVDTIPVELKSSYMVWSWFIYVLSANLLLVIPLLWVAAWWSLRPIEALAKEVRELEEHNRELLNPATTRELTSLVRNLNRLLKSERERYDKYRTTLTDLTHSLKTPLXXLQXXLRSLRSEKMSVSDAEPVMLEQISRISQQIGYYLHRASMRGGTLLSRELHPVAPLLDNLTSALNKVYQRKGVNISLDISPEISFVGEQNDFVEVMGNVLDNACKYCLEFVEISARQTDEHLYIVVEDDGPGIPLSKREVIFDRGQRVDTLRPGQGVGLAVAREITEQYEGKIVAGESMLGGARMEVIFGRQHSAPKDE

Variants of: B1
Assay: enrichment ratio after two sorts for PhoP signalling (ratio (wild type AVST 3.29)); higher = more functional
Conditions: with PhoP (E. coli)
With YQKA the enrichment ratio was ≤ 0.25. In the case of PKLQ, the enrichment ratio is reported as ≤ 0.25. In the case of VMPS, the enrichment ratio is reported as 0.518. In the case of AQSH, the enrichment ratio is reported as 2.81. In the case of DPSH, the enrichment ratio is reported as ≤ 0.25. For GRLQ, the enrichment ratio was ≤ 0.25. SAGE showed an enrichment ratio of 3.06. Variant SVVS has an enrichment ratio of 3.15. Work on MNAQ yielded an enrichment ratio of 11.8. YSNQ was tested, and the enrichment ratio was ≤ 0.25. MGFE showed an enrichment ratio of 5.11. With VMMP the enrichment ratio was ≤ 0.25. With KLVH the enrichment ratio was ≤ 0.25. With IYCM the enrichment ratio was ≤ 0.25. For VCPK, the enrichment ratio was ≤ 0.25. For YLWV, the enrichment ratio was ≤ 0.25. For ITEH, the enrichment ratio was ≤ 0.25. In the case of VEYV, the enrichment ratio is reported as ≤ 0.25. For FCSS, the enrichment ratio was ≤ 0.25. MMSE was tested, and the enrichment ratio was ≤ 0.25. In the case of VQRM, the enrichment ratio is reported as ≤ 0.25. FVKA was tested, and the enrichment ratio was ≤ 0.25. In the case of QTSR, the enrichment ratio is reported as ≤ 0.25. ADTQ was tested, and the enrichment ratio was ≤ 0.25. For KFPE, the enrichment ratio was ≤ 0.25. In the case of DCVF, the enrichment ratio is reported as ≤ 0.25. For SRFK, the enrichment ratio was ≤ 0.25. In the case of LIGR, the enrichment ratio is reported as ≤ 0.25. For GTTK, the enrichment ratio was ≤ 0.25. TVFS was tested, and the enrichment ratio was ≤ 0.25. For FAMF, the enrichment ratio was 2.8. SMYT was tested, and the enrichment ratio was 0.381. SGWG was tested, and the enrichment ratio was ≤ 0.25. With FMLT the enrichment ratio was ≤ 0.25. NKIS was tested, and the enrichment ratio was ≤ 0.25. With MTSD the enrichment ratio was ≤ 0.25. Work on NALI yielded an enrichment ratio of 4.49. For HKEF, the enrichment ratio was ≤ 0.25. NNLP was tested, and the enrichment ratio was ≤ 0.25. MSCW was tested, and the enrichment ratio was ≤ 0.25. For NGMD, the enrichment ratio was ≤ 0.25. FCYH was tested, and the enrichment ratio was ≤ 0.25. WGIQ was tested, and the enrichment ratio was ≤ 0.25. For KAEK, the enrichment ratio was ≤ 0.25. With HFTV the enrichment ratio was ≤ 0.25. TGFQ showed an enrichment ratio of 2.99. With KTIW the enrichment ratio was ≤ 0.25. GVTV was tested, and the enrichment ratio was ≤ 0.25. For EHNV, the enrichment ratio was ≤ 0.25. With FWGC the enrichment ratio was ≤ 0.25. YPVA was tested, and the enrichment ratio was ≤ 0.25. For FPTL, the enrichment ratio was ≤ 0.25. In the case of RIGQ, the enrichment ratio is reported as ≤ 0.25. HMQV was tested, and the enrichment ratio was ≤ 0.25. With NTYK the enrichment ratio was ≤ 0.25. QFQI was tested, and the enrichment ratio was ≤ 0.25. In the case of KYMG, the enrichment ratio is reported as ≤ 0.25. For VESL, the enrichment ratio was ≤ 0.25. In the case of LQWK, the enrichment ratio is reported as ≤ 0.25. In the case of RIHY, the enrichment ratio is reported as ≤ 0.25. With RVHT the enrichment ratio was ≤ 0.25. For RMFW, the enrichment ratio was ≤ 0.25. ICPI was tested, and the enrichment ratio was ≤ 0.25. GRLF was tested, and the enrichment ratio was 0.486. IFGH was tested, and the enrichment ratio was ≤ 0.25. VWFH was tested, and the enrichment ratio was ≤ 0.25. For TTQP, the enrichment ratio was ≤ 0.25. With EHSG the enrichment ratio was ≤ 0.25. With MSQS the enrichment ratio was ≤ 0.25. For MQFY, the enrichment ratio was ≤ 0.25. IWAT was tested, and the enrichment ratio was ≤ 0.25. In the case of RHRH, the enrichment ratio is reported as ≤ 0.25. With NLFI the enrichment ratio was ≤ 0.25. THQQ was tested, and the enrichment ratio was ≤ 0.25. For TYGR, the enrichment ratio was ≤ 0.25. With IQKL the enrichment ratio was ≤ 0.25. In the case of HFYF, the enrichment ratio is reported as ≤ 0.25. YMNG was tested, and the enrichment ratio was ≤ 0.25. MYVF was tested, and the enrichment ratio was ≤ 0.25. For GHSC, the enrichment ratio was ≤ 0.25. INGH was tested, and the enrichment ratio was ≤ 0.25. THSY gave an enrichment ratio of 6.95. With NIRI the enrichment ratio was ≤ 0.25. For NRTQ, the enrichment ratio was ≤ 0.25.
